Measurements taken from PubChem BioAssay AID1345082 (National Center for Advancing Translational Sciences (NCATS), 2018).
Where “and” joins values, the source holds several entries; their conditions need not be identical. Equal values may be shown once. Among all 94,000 compounds or so, about 4,000 (4.3%) were called active. Inconclusive means that the source gave no clear call. Such entries were picked first, then a sample of the others. Calls follow the shape of the dose curve; as a rule, active = well fitted inhibition curve with a large enough effect; inconclusive = small, poorly fitted or top-dose-only effect; inactive = no such curve, though single readings can be large or run the other way. Potencies beside an inconclusive call are fits to weak or partial responses and may not hold up.

test: Cytotoxic Profiling in NIH 3T3 Cell Line of Diverse Libraries Using Quantitative High-Throughput Screening; conditions: NIH 3T3 viability, CellTiter-Glo ATP luminescence, 48-72 h; activity change, negative = cytotoxicity: at 96.7 µM (top of the series) unless noted; series mostly up to 96.7 µM; also: nearly all actives have a fitted effect of over 55% in size
Method in brief: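 Cytotoxicity was measured by CellTiter-Glo ATP luminescence after 48 or 72 h compound exposure at 37 °C. Mouse NIH 3T3 fibroblasts were seeded at 400 cells/well and dosed by 23 nL pin transfer.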
% is scaled to controls: 0 for no effect and ±100 for the full control effect; potency is read from the fitted curve at half-maximal effect; tags tell the direction and shape of the fitted curve.

| SMILES | Potency | activity change, negative = cytotoxicity |
| --- | --- | --- |
| COc1ccccc1CNC(=O)C[C@@H]1CCNC[C@@H]1Cc1cc(-c2ccccc2)on1 | active: 79.4 µM | – |
| COc1ccc(OC)c2nc(-c3cccc(Cl)c3)c(CN3CC(O)C3)cc12 | – | inactive: -4.61% |
| CCOc1ccccc1CN1CCCCCNC(=O)CC1c1ccccc1 (stereo not given) | inconclusive: 44.7 µM [inhibitor, partial curve, poor fit] | – |
| O=C(c1ccccc1)N1CC[C@H](c2nc3ccc(F)cc3[nH]2)C1 | – | inactive: -26.3% [at 138 µM] |
| O=[S+]([O-])(c1ccccc1)N1CC2(CCCN2Cc2cccnc2)Cc2ccccc21 (stereo not given) | inconclusive: 70.8 µM [inhibitor, single point] | – |
| CN1CCOc2c(C(=O)NCCc3cnc[nH]3)cc(-c3ccccc3)cc21 | active: 79.4 µM | – |
| CCC(CC)C(=O)N1CC[C@@H](CC(=O)O)[C@@H](CC2=NCCc3ccc(C)cc32)C1 | inconclusive: 126 µM [inhibitor, partial curve, poor fit] | – |
| Cc1nn2c(c1-c1ccccc1C(C)C)N(Cc1cccc(C(=O)O)c1)CCC2 | active: 44.7 µM | – |
| O=c1[nH]c(C2CCCN(Cc3ccc(-c4cc(F)cc(F)c4)cc3)C2)nc2ccc(F)cc12 (stereo not given) | inconclusive: 50.1 µM [inhibitor, partial curve, poor fit] and inconclusive: 44.7 µM [inhibitor, partial curve, poor fit] | – |
| CCN1CCN(C(=O)CCC[C@@H]2[C@H]3CCCN4CCC[C@@H](CN2Cc2ccccc2)[C@@H]34)CC1 | inconclusive: 50.1 µM [inhibitor, partial curve, poor fit] | – |
| COc1cccc(CN2Cc3nc(-c4cc(F)cc(F)c4)ccc3OCC2=O)c1 | inconclusive: 89.1 µM [inhibitor, partial curve, poor fit] | – |
| O=C1c2c(nc(COc3ccc4c(c3)OCO4)n2Cc2ccccc2)NCCN1Cc1cccc(Cl)c1 | active: 22.4 µM | – |
| COc1ccc(-c2ccnc(N[C@H]3CO[C@H]4[C@@H]3OC[C@@H]4NC(=O)c3ccc4c(c3)OCO4)n2)cc1 | inconclusive: 17.8 µM [inhibitor, full curve, poor fit] | – |
| CCN(Cc1cnn(CC)c1)C(=O)C1COc2ccccc2C1 (stereo not given) | inconclusive: 20 µM [inhibitor, full curve] | – |
| CC(C)CN1C(=O)c2cccn2CC1CNC(=O)c1ccc(F)cc1 (stereo not given) | inconclusive: 50.1 µM [inhibitor, partial curve, poor fit] | – |
| O=C1NC2(CCN(C(=O)c3ccc(Cl)cc3)CC2)CC1c1ccccc1 (stereo not given) | inconclusive: 79.4 µM [inhibitor, partial curve, poor fit] | – |
| CN1CCCN(S(=O)(=O)c2cccc(Br)c2)c2ccccc21 | inconclusive: 39.8 µM [inhibitor, partial curve, poor fit] | – |
| O=C(NCc1ccc2c(c1)OCO2)c1ccc(-c2ccc(N3CCSCC3)nc2)cc1 | inconclusive: 44.7 µM [inhibitor, partial curve, poor fit] | – |

| SMILES | Potency | activity change, negative = cytotoxicity |
| --- | --- | --- |
| O=C1CCN(CC(O)C(F)(F)F)c2ccc(F)cc2CN1Cc1ccccc1 (stereo not given) | inconclusive: 50.1 µM [inhibitor, single point] | – |
| O=C(c1ccc(Cl)cc1)N1CC2(CCCN(C3CCCCC3)C2)Cc2ccccc21 (stereo not given) | inconclusive: 70.8 µM [inhibitor, single point] | – |
| COCCCNC(=O)C(NC(=O)c1ccccc1C)C1CCN(C(=O)c2ccc(F)cc2)CC1 (stereo not given) | – | inactive: 2.75% |
| CCC(NC(=O)c1cc(C(C)C)nn1C)c1ccc(S(C)(=O)=O)cc1 (stereo not given) | inconclusive: 8.91 µM [inhibitor, full curve, poor fit] | – |
| N#Cc1ccc(C(=O)N2CCC(n3cc(-c4nc(-c5ccccc5)no4)nn3)C2)cc1 (stereo not given) | inconclusive: 31.6 µM [inhibitor, partial curve] | – |
| CC1CCN(C(=O)c2cc3c(s2)CCN(C(=O)c2ccc(Cl)cc2)C3)CC1 | inconclusive: 44.7 µM [inhibitor, partial curve, poor fit] | – |
| COc1cccc(CNC(=O)c2ccc3c(c2)N(C)C2CCCCN2C3=O)c1OC (stereo not given) | inconclusive: 50.1 µM [inhibitor, partial curve, poor fit] | – |
| O=C(Nc1ccc(Cl)cc1)N1CCN(c2ccc3nnc(-c4ccccc4)n3n2)CC1 | inconclusive: 50.1 µM [inhibitor, partial curve, poor fit] and inconclusive: 12.6 µM [inhibitor, full curve, poor fit] | – |
| CC1=NS(=O)(=O)N(C)C=C1C(=O)OCc1nc(-c2ccccc2)oc1C | inconclusive: 28.2 µM [inhibitor, partial curve, poor fit] | – |
| COc1cccc(NC(=O)c2cnc3n[nH]c(-c4ccc(OC)cc4C)c3n2)c1 | active: 50.1 µM | – |
| COCCc1noc([C@@H]2CN(Cc3ccc(C(C)C)cc3)C[C@H]2CO)n1 | inconclusive: 50.1 µM [inhibitor, partial curve, poor fit] | – |
| O=c1[nH]c(C2CCN([S+](=O)([O-])c3cccc(C(F)(F)F)c3)CC2)nn1-c1ccccn1 | inconclusive: 50.1 µM [inhibitor, partial curve, poor fit] | – |
| O=C1NC(=NC2CCCCC2)C2(CCN(CC3CC3)CC2)N1c1cc(F)cc(F)c1 | inconclusive: 44.7 µM [inhibitor, partial curve, poor fit] | – |
| O=C(CCc1c[nH]c2ccccc12)N1CCC[C@H](n2c(=O)n(CC3CC3)c3cccnc32)C1 | inconclusive: 50.1 µM [inhibitor, partial curve, poor fit] | – |
| Cn1nccc1C(=O)N1CCC(F)(c2nc(-c3ccccc3)no2)CC1 | inconclusive: 22.4 µM [inhibitor, full curve, poor fit] | – |
| COc1ccc(NC(=O)c2ccc3c(c2)NC(C)(CNc2ccccc2)CO3)cc1OC (stereo not given) | inconclusive: 56.2 µM [inhibitor, partial curve, poor fit] | – |
| O=C(NCC(=O)N1CCN(Cc2ccccc2)CC1)c1cccc(-c2ccsc2)c1 | inconclusive: 44.7 µM [inhibitor, partial curve, poor fit] | – |
